In the supplement of paper PMC9588766:
Where a name gives a salt, the structure may show the parent alone. In all, about 1,900 compounds were measured (“cell viability of compound + 1 nM pemigatinib relative to pemigatinib-only (DMSO) wells”: median about 0.95, lowest 2% from about 0.22 on). Some of the results follow.

test system: PDC-DUC18828; assay: cell viability of compound + 1 nM pemigatinib relative to pemigatinib-only (DMSO) wells (fraction); PDC-DUC18828 is a patient-derived cholangiocarcinoma cell line; higher = less growth inhibition; conditions: first compound 1 µM; pemigatinib concentration 1 nM; 72 h
Protocol: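 Selleck Bioactive library screen in the patient-derived FGFR2 fusion-positive ICC cell line PDC-DUC18828 (500 cells/well). Each compound was tested at 1 uM with 1 nM pemigatinib, in triplicate, for 72 h. Viability was read by CellTiter-Glo and normalised to plate DMSO controls. Value is the paper's averaged normalised viability.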

Compared with `COc1cc(-c2cc(-c3cccc(O)c3)cnc2N)cc(OC)c1OC` + CCN1C(=O)N(c2c(F)c(OC)cc(OC)c2F)Cc2cnc3[nH]c(CN4CCOCC4)cc3c21 [pemigatinib], `COc1cc(-c2cc(-c3ccc(N4CCNCC4)cc3)cnc2C)cc(OC)c1OC` + CCN1C(=O)N(c2c(F)c(OC)cc(OC)c2F)Cc2cnc3[nH]c(CN4CCOCC4)cc3c21 [pemigatinib] is lower in cell viability: 0.969 for the first, 0.955 for the second.

Going from `O=C(O)c1ccc(O)c2ncccc12` + CCN1C(=O)N(c2c(F)c(OC)cc(OC)c2F)Cc2cnc3[nH]c(CN4CCOCC4)cc3c21 [pemigatinib] to `O=C(O)Cc1cc(I)c(Oc2ccc(O)c(I)c2)c(I)c1` [Tiratricol] + CCN1C(=O)N(c2c(F)c(OC)cc(OC)c2F)Cc2cnc3[nH]c(CN4CCOCC4)cc3c21 [pemigatinib], the cell viability falls from 1.07 to 0.979.

First: COc1cc2ncnc(Nc3ccc(O)c(Br)c3)c2cc1OC + CCN1C(=O)N(c2c(F)c(OC)cc(OC)c2F)Cc2cnc3[nH]c(CN4CCOCC4)cc3c21 [pemigatinib]
Second: COc1ccc2cc3[n+](cc2c1OC)CCc1cc2c(cc1-3)OCO2 [Berberine HCl] + CCN1C(=O)N(c2c(F)c(OC)cc(OC)c2F)Cc2cnc3[nH]c(CN4CCOCC4)cc3c21 [pemigatinib]
The cell viability of the first is lower: 0.787 for the first, 0.879 for the second.

First: CO[C@H]1C[C@@H]2CC[C@@H](C)[C@@](O)(O2)C(=O)C(=O)N2CCCC[C@H]2C(=O)O[C@H]([C@H](C)C[C@@H]2CC[C@H](n3cnnn3)[C@H](OC)C2)CC(=O)[C@H](C)/C=C(\C)[C@@H](O)[C@@H](OC)C(=O)[C@H](C)C[C@H](C)/C=C/C=C/C=C/1C [Zotarolimus(ABT-578)] + CCN1C(=O)N(c2c(F)c(OC)cc(OC)c2F)Cc2cnc3[nH]c(CN4CCOCC4)cc3c21 [pemigatinib]
Second: CCOC(=O)N[C@@H]1CC[C@@H]2[C@@H](C1)C[C@H]1C(=O)O[C@H](C)[C@H]1[C@H]2/C=C/c1ccc(-c2cccc(F)c2)cn1 [Vorapaxar] + CCN1C(=O)N(c2c(F)c(OC)cc(OC)c2F)Cc2cnc3[nH]c(CN4CCOCC4)cc3c21 [pemigatinib]
The cell viability of the first is lower: 0.546 for the first, 0.932 for the second.

First: CCCC(=O)Nc1cccc(NC(=O)c2ccccc2Br)c1 + CCN1C(=O)N(c2c(F)c(OC)cc(OC)c2F)Cc2cnc3[nH]c(CN4CCOCC4)cc3c21 [pemigatinib]
Second: CC(C)(C)OC(=O)Nc1ccc(-c2cc(C(=O)NCCCCCCC(=O)NO)no2)cc1 + CCN1C(=O)N(c2c(F)c(OC)cc(OC)c2F)Cc2cnc3[nH]c(CN4CCOCC4)cc3c21 [pemigatinib]
The cell viability of the first is higher: 0.822 for the first, 0.459 for the second.

First: C=C1[C@H](CO)[C@@H](O)C[C@@H]1n1cnc2c(=O)[nH]c(N)nc21 [Entecavir Hydrate] + CCN1C(=O)N(c2c(F)c(OC)cc(OC)c2F)Cc2cnc3[nH]c(CN4CCOCC4)cc3c21 [pemigatinib]
Second: CN(C)C(=O)c1cc2cnc(Nc3ccc(N4CCNCC4)cn3)nc2n1C1CCCC1 + CCN1C(=O)N(c2c(F)c(OC)cc(OC)c2F)Cc2cnc3[nH]c(CN4CCOCC4)cc3c21 [pemigatinib]
The cell viability of the first is lower: 0.916 for the first, 0.99 for the second.

Compared with `CC(=O)O[C@]1(C(C)=O)CC[C@H]2[C@@H]3C=C(C)C4=CC(=O)CC[C@]4(C)[C@H]3CC[C@@]21C` [Megestrol Acetate] + CCN1C(=O)N(c2c(F)c(OC)cc(OC)c2F)Cc2cnc3[nH]c(CN4CCOCC4)cc3c21 [pemigatinib], `CC1=C(C(=O)O)N2C(=O)[C@@H](NC(=O)[C@H](N)c3ccccc3)[C@H]2SC1` [Cephalexin] + CCN1C(=O)N(c2c(F)c(OC)cc(OC)c2F)Cc2cnc3[nH]c(CN4CCOCC4)cc3c21 [pemigatinib] is higher in cell viability: 0.902 for the first, 0.952 for the second.

Compared with `CN1CCN(c2ccc(Nc3cc(-c4cccc(-n5ccc6cc(C7CC7)cc(F)c6c5=O)c4CO)cn(C)c3=O)nc2)CC1` + CCN1C(=O)N(c2c(F)c(OC)cc(OC)c2F)Cc2cnc3[nH]c(CN4CCOCC4)cc3c21 [pemigatinib], `Cc1cc(Nc2cc(CN3CCOCC3)c3nc(C)c(Cc4ccc(Cl)cc4F)n3n2)n[nH]1` + CCN1C(=O)N(c2c(F)c(OC)cc(OC)c2F)Cc2cnc3[nH]c(CN4CCOCC4)cc3c21 [pemigatinib] is lower in cell viability: 0.915 for the first, 0.361 for the second.

Compared with `Oc1cc(O)cc(/C=C/c2ccc(O)c(O)c2)c1` [Piceatannol] + CCN1C(=O)N(c2c(F)c(OC)cc(OC)c2F)Cc2cnc3[nH]c(CN4CCOCC4)cc3c21 [pemigatinib], `COc1ccc2c(c1)c(CC(=O)OCC(=O)O)c(C)n2C(=O)c1ccc(Cl)cc1` [Acemetacin] + CCN1C(=O)N(c2c(F)c(OC)cc(OC)c2F)Cc2cnc3[nH]c(CN4CCOCC4)cc3c21 [pemigatinib] is higher in cell viability: 0.863 for the first, 0.944 for the second.

First: O=C(NC1CC1)c1cc(-c2cccs2)on1 [Isoxazole 9 (ISX-9)] + CCN1C(=O)N(c2c(F)c(OC)cc(OC)c2F)Cc2cnc3[nH]c(CN4CCOCC4)cc3c21 [pemigatinib]
Second: Cc1nccn1CC1CCc2c(c3ccccc3n2C)C1=O (configuration not stated) [Ondansetron HCl] + CCN1C(=O)N(c2c(F)c(OC)cc(OC)c2F)Cc2cnc3[nH]c(CN4CCOCC4)cc3c21 [pemigatinib]
The cell viability of the first is higher: 1.01 for the first, 0.979 for the second.

First: Nc1nc(=O)[nH]cc1F [Flucytosine] + CCN1C(=O)N(c2c(F)c(OC)cc(OC)c2F)Cc2cnc3[nH]c(CN4CCOCC4)cc3c21 [pemigatinib]
Second: Nc1nnc(-c2cccc(Cl)c2Cl)c(N)n1 [Lamotrigine] + CCN1C(=O)N(c2c(F)c(OC)cc(OC)c2F)Cc2cnc3[nH]c(CN4CCOCC4)cc3c21 [pemigatinib]
The cell viability of the first is higher: 0.95 for the first, 0.867 for the second.

Compared with `CC[C@@]1(O)C(=O)OCc2c1cc1n(c2=O)Cc2cc3c(CN(C)C)c(O)ccc3nc2-1` [Topotecan HCl] + CCN1C(=O)N(c2c(F)c(OC)cc(OC)c2F)Cc2cnc3[nH]c(CN4CCOCC4)cc3c21 [pemigatinib], `COc1cc2c(cc1Cc1cccc(Cl)c1F)c(=O)c(C(=O)O)cn2[C@H](CO)C(C)C` [Elvitegravir (GS-9137, JTK-303)] + CCN1C(=O)N(c2c(F)c(OC)cc(OC)c2F)Cc2cnc3[nH]c(CN4CCOCC4)cc3c21 [pemigatinib] is higher in cell viability: 0.0983 for the first, 0.99 for the second.

Compared with `Cn1sc(=O)n(Cc2ccccc2)c1=O` + CCN1C(=O)N(c2c(F)c(OC)cc(OC)c2F)Cc2cnc3[nH]c(CN4CCOCC4)cc3c21 [pemigatinib], `CC1=CC(=O)c2ccccc2C1=O` [Menadione] + CCN1C(=O)N(c2c(F)c(OC)cc(OC)c2F)Cc2cnc3[nH]c(CN4CCOCC4)cc3c21 [pemigatinib] is higher in cell viability: 0.896 for the first, 1.02 for the second.

Going from `CC(=O)NC[C@H]1CN(c2ccc(N3CCOCC3)c(F)c2)C(=O)O1` [Linezolid] + CCN1C(=O)N(c2c(F)c(OC)cc(OC)c2F)Cc2cnc3[nH]c(CN4CCOCC4)cc3c21 [pemigatinib] to `Cc1ccc(C(=O)C(C)CN2CCCCC2)cc1` (configuration not stated) [Tolperisone HCl] + CCN1C(=O)N(c2c(F)c(OC)cc(OC)c2F)Cc2cnc3[nH]c(CN4CCOCC4)cc3c21 [pemigatinib], the cell viability rises from 1 to 1.02.

First: CC[C@H](C)C(=O)O[C@H]1C[C@H](O)C=C2C=C[C@H](C)[C@H](CC[C@@H](O)C[C@@H](O)CC(=O)O)[C@H]21 [Pravastatin sodium] + CCN1C(=O)N(c2c(F)c(OC)cc(OC)c2F)Cc2cnc3[nH]c(CN4CCOCC4)cc3c21 [pemigatinib]
Second: COCCCOc1cc(C[C@@H](C[C@H](N)[C@@H](O)C[C@H](C(=O)NCC(C)(C)C(N)=O)C(C)C)C(C)C)ccc1OC [Aliskiren Hemifumarate] + CCN1C(=O)N(c2c(F)c(OC)cc(OC)c2F)Cc2cnc3[nH]c(CN4CCOCC4)cc3c21 [pemigatinib]
The cell viability of the first is lower: 0.911 for the first, 1.03 for the second.

Going from `Nc1ccccc1NC(=O)c1ccc(CNc2nccc(-c3cccnc3)n2)cc1` [Mocetinostat (MGCD0103)] + CCN1C(=O)N(c2c(F)c(OC)cc(OC)c2F)Cc2cnc3[nH]c(CN4CCOCC4)cc3c21 [pemigatinib] to `Cc1cc(Nc2ncc(Cl)c(Nc3ccccc3S(=O)(=O)C(C)C)n2)c(OC(C)C)cc1C1CCNCC1` + CCN1C(=O)N(c2c(F)c(OC)cc(OC)c2F)Cc2cnc3[nH]c(CN4CCOCC4)cc3c21 [pemigatinib], the cell viability rises from 0.721 to 0.889.

Compared with `Cc1ccc(S(=O)(=O)/C=C/C#N)cc1` + CCN1C(=O)N(c2c(F)c(OC)cc(OC)c2F)Cc2cnc3[nH]c(CN4CCOCC4)cc3c21 [pemigatinib], `CNCC[C@@H](Oc1ccccc1C)c1ccccc1` [Atomoxetine HCl] + CCN1C(=O)N(c2c(F)c(OC)cc(OC)c2F)Cc2cnc3[nH]c(CN4CCOCC4)cc3c21 [pemigatinib] is higher in cell viability: 0.844 for the first, 0.904 for the second.

Compared with `CCC(CC)(NC(=O)C(C)C)C(=O)N[C@@H](CCCN=C(N)N)C(=O)NC1(C(=O)NC(c2ccc(F)cc2)c2ccc(F)cc2)CCCC1` + CCN1C(=O)N(c2c(F)c(OC)cc(OC)c2F)Cc2cnc3[nH]c(CN4CCOCC4)cc3c21 [pemigatinib], `C[C@@H](Oc1cc(-c2cnn(C3CCNCC3)c2)cnc1N)c1c(Cl)ccc(F)c1Cl` + CCN1C(=O)N(c2c(F)c(OC)cc(OC)c2F)Cc2cnc3[nH]c(CN4CCOCC4)cc3c21 [pemigatinib] is lower in cell viability: 0.994 for the first, 0.821 for the second.

For `CC(=O)/N=c1/sc(S(N)(=O)=O)nn1C` [Methazolamide] + CCN1C(=O)N(c2c(F)c(OC)cc(OC)c2F)Cc2cnc3[nH]c(CN4CCOCC4)cc3c21 [pemigatinib], the cell viability was 0.923.
